The list shows a part of the results.

The test relates to PfHDP1 homeodomain (GST-tagged). The test can be described thus: gcPBM binding intensity (ln(normalized median fluorescence intensity)); higher = stronger DNA binding. The procedure, abridged: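 Plasmodium falciparum DNA-binding domains carrying a GST tag were expressed in E. coli and applied for 1 h, at about 25 μg on average, to an Agilent 4 × 180k array. The array held primer-extended double-stranded 36-bp intergenic genomic probes together with negative controls, and binding took place in 1× PBS with 1% milk, 0.2 mg/ml BSA, 0.5% salmon testes DNA and 0.03% Triton X-100. An Alexa488 anti-GST antibody detected bound protein, and the array was scanned at 488 nm. Binding intensity is taken as the highest Masliner-normalised natural-log median intensity across replicate spots of either probe orientation.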
Turning to “TATTTATATTTATACACACACACAAAAAAAAAAAAA [CACACA_site6817]”, the “gcPBM binding intensity (ln)” value is 6.82. The same measure for “ATATGTTCCGAAGGTTGTACACACATAGAAATATAC [XGTACX_site8227]”: 7.1.

On to “AAAATATATACAATATGTACATATATATATATATAT [XGTACX_site1898]”, for which the “gcPBM binding intensity (ln)” value was 9.44. Regarding “GTACGTTAGATATATACACACATACATAATAAAGAA [CACACA_site7327]”, the “gcPBM binding intensity (ln)” value was determined as 7.14. As for “TTACCCATTCCCTTTACATGCAATTTGTATTAATAA [TGCATGCA_site412]”, the figure is 7.42.

In the case of “TTAATTCTACTTATTACACACATATTAAGCAAAAAT [CACACA_site4921]”, the “gcPBM binding intensity (ln)” value was determined as 6.62.

For the sequence “ATATATATTTATAGGTGTACAAAATACTATTTTAGG [XGTACX_site8499]”, the “gcPBM binding intensity (ln)” value was found to be 6.62. As for “AAAAGGAAAAATATCACACATATATATATATATATA [CACACA_site5586]”, the figure is 9.51; as for “AATAAGTAACAAAATACACACATATAGGTAATTATA [CACACA_site6949]”, 6.58. As for “ATTATTATACACAAATGTACATGTGAATTTTTTTTC [XGTACX_site6982]”, the figure is 7.07; as for “TAAATATATAAATACACACACATACACAAAAAAAAA [CACACA_site5890]”, 7.09. As for “TATACACCCTAAAATACACACACACCCACCCATATA [CACACA_site9380]”, the figure is 7.31; as for “TTTTTTTTTCTTTCTTTCTTTTGTAAAAACCTCAAA [CACACA_negctrl_site723]”, 6.01. For “ATATGTATATATAAAAGTACGCGTAAAAAAAAAAAA [XGTACX_site5377]”, the “gcPBM binding intensity (ln)” value is 6.8. The same measure for “TCTTTTTATATTTATTGTACATAAAAAATAAAACAT [XGTACX_site4073]”: 6.56; for “TATAAACCAATGAACACACAAACATATATATATATA [CACACA_site3168]”: 9.26. As for “ATAAAATAATCTTATGCACACCAAAAATTTATATAA [CACACA_site8332]”, the figure is 10.4; as for “ATATATCAAAAATGATGACATAAATATATTAATTTA [TGCATGCA_negctrl_site259]”, 6.16.

“TATCTGTATGTATGTACACACAAAAAATGGAATATA [CACACA_site5947]”: the “gcPBM binding intensity (ln)” value is 6.76.

For “TTTTTGTAAAATAAACGTACAAAACAATTGTTCATT [XGTACX_site6537]”, the “gcPBM binding intensity (ln)” value worked out at 6.5. The same measure for “TAATATATATATTTATGTACATATAAATTTTCTCCT [XGTACX_site4496]”: 6.58; for “TATTTTAAAACAAAAATATAATTTCATAAAAATATA [CACACA_negctrl_site394]”: 5.88; for “GCCTTCCTTCTAAATGCACACGGAAAGTATAAATGT [CACACA_site8797]”: 10.1.

With “GAATGAATCAATGTTTGTACTCAACAAATTATAAGG [XGTACX_site5122]”, the “gcPBM binding intensity (ln)” value came out at 6.45. The same measure for TATATATAATACAGTATGCACTATTTTTATTAAAAA: 8.06; for “CAATAATTTTTTAAATGTACTTTATTATAATTTAAT [XGTACX_site135]”: 6.27; for “TATTAATTCTTAAATTTTTTTTTTTAATTCCTAGGA [CACACA_negctrl_site879]”: 5.86. The same measure for “ACAACATTTCTCAAATGTACATAATATAATTTATAT [XGTACX_site3224]”: 6.6; for “TTTTCTTACATCTTATAAAAAAAAATATATATTATA [GTGCAC_negctrl_site118]”: 6.2; for “GTCTAACAACCAAACGCACACACACTAATAAAAAAA [CACACA_site8026]”: 7.88. The same measure for “TTATATACATAAAAATGTACTTTTTATAAAATATAT [XGTACX_site8281]”: 6.15; for “AAGTTAGTATTCTGCTGTACTTCTATATATAAGTGT [XGTACX_site7678]”: 6.11; for “AAAATAATATTTAATACACACATAATTTTAATATAA [CACACA_site4588]”: 6.4. For “TACTTATATTATTTTATTATTAAATTTAAAACGAAA [CACACA_negctrl_site736]”, the “gcPBM binding intensity (ln)” value was found to be 6.41. The same measure for “ACAATAAAGAAGTGTACACATATATCAATAAAAAAA [CACACA_site5228]”: 7.05. The same measure for “CAATCATGGGTTTACACACACATGCATGTGAAAATT [CACACA_site1349]”: 6.49; for “AAAAAAAAAAAAAAAAAAAAAAAAATATATAATTTA [CACACA_negctrl_site583]”: 7.28; for “AACCAAACAAATAAACGTACAAACATTACATATATT [XGTACX_site2265]”: 6.42. The same measure for “GATGATAATAAATTTATATATAATATTATCTTATGT [GTGCAC_negctrl_site672]”: 6.43; for “CATATTAAAAATTATTGTACATATTAATGAATATAA [XGTACX_site2734]”: 6.11. Turning to “ATTTTTGCAGTAATTAAATAGACAAAATGAAAAAAA [CACACA_negctrl_site1537]”, the “gcPBM binding intensity (ln)” value was 6.75. The same measure for “AAAAAAAAAAAAAGCACACATATAAATATGAATAAA [CACACA_site1393]”: 6.26; for “AAAAAAAAAAAAAACACACACATACACCCAAAAATG [CACACA_site4223]”: 6.8. The same measure for “ATATACACACAAAAACGTACACATATATATATGTAT [XGTACX_site2673]”: 7.08.

The values are drawn from the supplement of paper PMC11417369.
